# Laboratory results from the supplement of paper PMC3334620.
# The full ranking holds about 33,000 sequences; the median of “E-score (-0.5 to 0.5)” is about -0.054, and the highest 2% start at about 0.39. The list shows a part of the results.
# Molecular target: Ylr278c (UniProt Q05854)
# Test: PBM E-score (8-mer binding enrichment) (E-score (-0.5 to 0.5)); higher = stronger / more preferred TF binding; most listed sequences are background and not binding sites
# Conditions: protein concentration: 200 nM; construct: GST-DNA-binding domain
# In short: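 Yeast transcription factors, full-length or as DNA-binding domains, were expressed with a GST tag using PURExpress in vitro transcription/translation. At about 100-200 nM they were applied to universal all-10-mer Agilent arrays, double-stranded by primer extension on fresh or once-stripped slides. Fluorescent anti-GST detected bound protein, and masliner normalised the scans. E-scores for ungapped eight-base words, pooled with reverse complements, came from the Universal PBM Analysis Suite.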
row,Sequence,PBM E-score
1,CGGCGGCA,0.281
2,CGGCAGTC,0.183
3,ATACGTTG,-0.301
4,CGCATCAC,-0.0929
5,ATCTCGCC,0.109
6,TCCGGCCA,0.409
7,AAAGATCT,-0.111
8,TACTTATA,-0.134
9,CATGTCGA,-0.0566
10,TAATTTGA,-0.11
11,AAACCTTT,0.0364
12,ACTAGTGG,-0.0388
13,AGTCTGTC,-0.198
14,AGAGACGG,-0.0308
15,AGGTGTGA,-0.104
16,ATAGCAAC,-0.0535
17,AAGAGGGA,-0.297
18,CGACGCAA,0.114
19,TCGCCGCA,0.29
20,AACTTCTA,-0.231
21,TAATACCA,0.0433
22,AGCGTCGG,0.295
23,ACAGAGAG,-0.355
24,CCAGTTTA,-0.105
25,CGCAGGCG,-0.0383

row,Sequence,PBM E-score
1,ACGAGACC,0.0143
2,AGCGATAG,-0.158
3,CCATGTTA,-0.141
4,CCTCGTAA,-0.00886
5,TAGGCGAA,-0.238
6,AGGACCTA,0.0121
7,CAGGGCGG,0.21
8,AACAACGA,-0.106
9,GCGGTCAC,0.0131
10,AGGTCACA,-0.213
11,AATGACAA,-0.115
12,GATCGCCC,0.0296
13,ACTAGGTC,-0.0285
14,CGATTTAC,0.114
15,AATGTTTA,-0.134
16,ATTACCCA,-0.056
17,TCTTATCA,0.0183
18,CGACGGCC,0.108
19,ACGAGCCG,0.0569
20,ACAAGCTA,-0.277
21,ACGGGGTG,0.0357
22,TGAATTAA,-0.0358
23,CCTTCACC,-0.0695
24,AGATTGGG,0.0161
25,AAAACGCT,-0.156

row,Sequence,PBM E-score
1,AGGAATTC,-0.0584
2,CAACTATA,-0.105
3,ACCGTCCA,0.0873
4,ATGCAGCA,-0.118
5,CAACGGTG,0.0327
6,CACCGCGA,0.12
7,ACGTCAAT,-0.238
8,AAAATTTC,-0.0813
9,TGGGCTAA,-0.0598
10,AACGGTCG,0.126
11,CCTCGGCG,0.359
12,AGGAGCCC,0.12
13,AAGTCGAC,-0.00141
14,AAAACACA,-0.0787
15,AAAAAAAG,-0.012
16,CCTCAGTC,-0.139
17,GATGAAAA,0.0362
18,CTTCAACA,-0.253
19,AAATGCTC,0.0464
20,CTTCTTAA,-0.118
21,AGCAATTC,0.0217
22,AGGGCGCG,-0.0333
23,AAACTCAG,-0.181
24,CGCCCGAA,0.111
25,CCACCATC,-0.065

row,Sequence,PBM E-score
1,ATTCCATA,0.0215
2,TCCTACAA,-0.065
3,AGTCGCAG,-0.114
4,ACCAGGCT,-0.379
5,GGTTGGAA,0.134
6,TGCCCACA,-0.268
7,GCCCCGTA,0.0577
8,GGCCACTA,-0.0397
9,CAACCCAA,-0.193
10,ATGAGTAG,-0.00731
11,CGAGACAG,-0.0905
12,ACGTTGTC,-0.0899
13,GAAAGTTA,0.0235
14,GCCCTAGA,-0.212
15,CATGAGCG,-0.00958
16,GACCTATC,-0.0879
17,AATAAACT,0.0605
18,AAGCACGC,-0.0908
19,GTCCTGCA,-0.274
20,ACATTTCG,-0.0113
21,ATGGTCCG,0.362
22,CCCCCCGA,0.083
23,CAAGAAAC,0.119
24,CGGTGTTA,0.331
25,ATGCGGGC,0.0941

row,Sequence,PBM E-score
1,ACATCAGT,-0.0951
2,ATGCACGC,-0.0143
3,CGTACAAC,-0.0582
4,CGGATAAG,0.262
5,CGTGGCCC,-0.0746
6,AATCTCGA,-0.102
7,GGGGTGCA,0.2
8,CGACTGCG,0.12
9,ACCATATA,-0.15
10,GTCATGAC,0.0612
11,ACCAAATG,-0.0915
12,CGAAACAA,0.139
13,ACCCTAGT,-0.302
14,AAGAGCGA,-0.0751
15,GAAACTCA,-0.0472
16,GCAATCCA,-0.0617
17,GGGCCCAC,0.0989
18,ACCGCTCA,-0.075
19,ATTTCGAC,-0.0116
20,AATTTGAT,-0.0443
21,CGTCGCTC,0.0828
22,CGGGAGTA,0.343
23,GCAACAGC,-0.0616
24,ACTCGGAA,0.398
25,TTCAGCAA,-0.242

row,Sequence,PBM E-score
1,ACAACCGC,0.147
2,TATCGGCA,0.264
3,CCCCAATC,-0.184
4,TCACCGGA,0.394
5,GGAGAAAC,0.309
6,CGCGGCGC,0.308
7,ACATAGAT,-0.0405
8,CAAGAGAC,-0.231
9,ATCGCTGA,-0.0505
10,CCCCACAC,-0.0908
11,CCCCTTTC,-0.0376
12,ATGTGATG,-0.192
13,ATCAAAGC,0.113
14,TAGCGAAA,-0.136
15,TAGCTACA,-0.164
16,ACAGCTGT,-0.0829
17,TCGGCCGA,0.352
18,TCCAGACA,-0.0585
19,GACTTGTA,-0.0737
20,AGCCCAGG,-0.282
21,AACTGAGT,0.00804
22,CCTCCTCA,-0.231
23,AGACACGC,-0.0238
24,AATGGTAT,-0.0745
25,GAGACGCC,0.18

row,Sequence,PBM E-score
1,GTAACTCA,-0.148
2,CAAACGGA,0.317
3,ACACTGCG,0.00994
4,CTACCTCC,0.185
5,AAGGAGGG,-0.184
6,AAAGTGCA,0.0083
7,ACCCATAC,-0.232
8,ACTGCCCT,-0.112
9,AAAAAGGC,-0.015
10,GCCGGAAA,0.428
11,TAGTCACA,-0.222
12,CTAAGGAG,-0.217
13,CCCGTATC,0.0595
14,GAGCCTCA,-0.171
15,GGTTGCAC,-0.114
16,CATCCTAC,-0.17
17,AGCCACTG,-0.151
18,GAATCTAA,0.0521
19,AGCTGGCC,0.133
20,GATAGGGC,-0.139
21,GCGATTTA,0.0394
22,AAAGGAAT,-0.0742
23,CCCCCGAA,0.184
24,CAGTAGAC,-0.0573
25,GAATTAAC,-0.0862

row,Sequence,PBM E-score
1,GGTGGTTA,0.0673
2,CTGGTTGC,0.123
3,AACACAGA,-0.141
4,CACGGCGC,0.191
5,ACGGCTAT,-0.0187
6,AAAATTGG,-0.00451
7,GGGCTCGA,-0.141
8,CCGTTGTC,0.233
9,CACGCGGC,0.151
10,CAATACTC,-0.0672
11,ATGAGCTC,0.0429
12,CGATGGGC,0.0294
13,CTCTGTTC,-0.0823
14,CTAGAAAA,-0.094
15,GGTAAAAA,0.0218
16,GCTAAAGA,-0.017
17,TCTGATAA,-0.171
18,TATCCAAA,-0.206
19,AAGGACAC,-0.039
20,ACTGTCGC,0.0643
21,GGCTTCGA,-0.0263
22,CACAAAGA,-0.197
23,ACGTAGAT,-0.145
24,AGGACCAC,-0.0997
25,GATTCCAC,0.141

row,Sequence,PBM E-score
1,GTCCTTTA,-0.128
2,GGCGGGAC,0.244
3,ACCTCGTC,0.068
4,CGCGCCAG,0.0693
5,GTGCCTCA,-0.135
6,GGTGGAAA,0.0537
7,GGATAATA,0.164
8,AAAGATTC,-0.0955
9,AAGGTGAC,-0.328
10,GTCGCAAC,-0.0209
11,CTAACATA,-0.0649
12,GGCACGGA,0.279
13,CCTCTCTA,-0.211
14,CTCTTGTA,-0.125
15,GCGCGTGA,0.0222
16,AAAACCAC,-0.0804
17,GGGTACAC,-0.021
18,CTCCATAC,-0.025
19,ACACTAGG,-0.147
